Measurements from ChEMBL document CHEMBL4888484, “Replenishing the malaria drug discovery pipeline: Screening and hit evaluation of the MMV Hit Generation Library 1 (HGL1) against asexual blood stage Plasmodium falciparum ,using a nano luciferase reporter read-out” (2022).
Out of some 150,000 compounds screened, about 540 (0.36%) showed an effect of 50% or more. The list shows a part of the results.

Each compound was assayed on Plasmodium falciparum (assay: Primary screen in NF54 nanoGlo assay, in single point, at 2uM, 72h; a lower Z score goes with more inhibition). Details: timepoint 72 hour.
Type: functional, Erythrocyte

Compound	% Inhibition [%]	Z score
Cc1nn(C)c(C)c1OC[C@@H](O)COC(C)C	12	-2.16
CCC(C)C(NS(C)(=O)=O)C(=O)NCC1(c2ccccc2)CC1 (stereo not given)	-6	1.21
CC(C)CN(CC(C)C)C(=O)c1ccco1	2	-0.32
CCC(c1cccs1)N1C(=O)[C@H]2CN(S(=O)(=O)c3c(C)noc3C)C[C@H]2C1=O (stereo not given in full)	-6	0.82
COC(=O)CCc1cncc(NC(=O)[C@](C)(N)c2ccc(S(C)(=O)=O)cc2)c1	-11	1.2
N#Cc1ccc(OCC=Cc2ccccc2)nc1	-2	0.25
Cc1nc(C(C)(C)NC(=O)c2ccn(C)c2C)sc1C	-6	0.78
CCN1C[C@H](CN(C)c2ccc(S(=O)(=O)C(F)F)cc2)Oc2ccccc21	0	-0.05
Clc1cnn([C@H]2CCN(Cc3cc4cccnc4o3)C2)c1	0	-0.01
Cc1cc(CC(=O)N2CCNC[C@H]2c2ccncc2)no1	19	-2.43
CC(=O)N(C)c1nc2ccccc2n(CC(=O)N2CCc3ccccc32)c1=O	-4	0.66
Cc1cc(NC(=O)COC(=O)c2ccccn2)no1	-6	1.17
CCCC[C@H](CC)CNC(=O)c1cccnc1OCC	-4	0.44
Cn1cc(N2C(=O)C[C@H](N(Cc3ccccc3)C3CC3)C2=O)cn1	3	-0.44
CCn1cc(S(=O)(=O)NC2CC(C)(OC)C2(C)C)cn1 (stereo not given)	-9	1.22
Cc1cc(CS(=O)(=O)CC(=O)NCC2CC2)no1	-5	0.8
O=C(NC1CCCCC1)[C@@H](c1ccc(Cl)cc1)N1CCCCC1	-2	0.31
CC1(C)CNC[C@@H](NC(=O)OC(C)(C)C)C1	-9	1.07
COc1ccc(CCC(=O)N2CCC[C@H]2c2cccs2)cc1	-8	1.56
O=C(c1ccco1)N1CCC(Oc2nncs2)CC1	11	-1.35
CC(=O)N1CCCC1C1CCCN1c1ncnc2ccccc12 (stereo not given)	12	-1.6
CC1CN(c2cc(Cl)ccc2Cl)CCN1CC1CNC(=O)C1 (stereo not given)	1	-0.25
O=C(CCC1CCCC1)Nc1ccncc1	-12	1.57
O=C1CN(S(=O)(=O)c2ccccc2Cl)C[C@H]2c3ccccc3CCN12	-2	0.33
COc1ccc2cc(-c3nc(CCN(C)C(=O)c4ccco4)no3)[nH]c2c1	-15	2.89
O=C(NC1CCC1)[C@H]1C[C@@H](c2ccccc2)N2CCC[C@H]12	-9	1.63
Cc1nc[nH]c1-c1nccn1CCc1cnn(-c2ccccc2)c1	-26	3.39
COc1ccc(-c2csc(N(c3ccccc3Cl)[C@@H](C)C(=O)N(C)C)n2)cc1	-2	0.3

Compound	% Inhibition [%]	Z score
O=C(CN1CCOCC1)N1CCc2cc(Br)ccc21	-24	2.19
O=C(NC1CC[C@@H](O)[C@@H](O)C1)c1ccc(OC(F)F)cn1 (stereo not given in full)	4	-0.43
Nc1nc(N2CCC(Cc3ccccc3)CC2)nc2c1[C@H](C(=O)Nc1ccc3c(c1)OCO3)CC(=O)O2	-15	1.65
Clc1ccc(COc2ccccc2CNCc2ccc3c(c2)OCO3)c(Cl)c1	-11	1.09
Cc1nc(C(=O)NCCc2c[nH]c3ccccc23)c(C)s1	12	-1.81
CC[C@H](C)NC(=O)c1coc(CN(Cc2ccc(F)cc2)Cc2ccc(F)cc2)n1	3	-0.45
O=C(NCc1ccccc1C(F)(F)F)c1cc2n(n1)C[C@@H](c1ccc3c(c1)OCO3)OC2	-20	1.81
COc1ccc(/C=C/CN2CCC(Oc3cc(OC)ccc3C(=O)N3CCCC3)CC2)cc1	1	-0.07
CCCN(CC(=O)N1CCc2sccc2C1COc1ccc(C)cc1C)CC(C)O (stereo not given)	-14	1.31
C#CCNC(=O)c1ccc(N2CCn3c(nnc3C(F)(F)F)C2)nc1	-2	0.23
COC(=O)C1CCCN1CC(=O)N1C(C)CCCC1C (stereo not given)	3	-0.29
Cc1nc2ncc(-c3cnc4c(C)cccc4c3)cn2n1	11	-1.4
Cc1cc(C)cc(N(C)S(=O)(=O)c2ccsc2-c2nc(-c3ccccc3C)no2)c1	-12	1.69
O=C(OCC(=O)N(C1CCCCC1)[C@H]1CCS(=O)(=O)C1)c1cccc(F)c1	6	-1.1
NC1COCC1Oc1ccc2ccccc2n1 (stereo not given)	-7	1.05
COc1cccc(-c2ncc(CN3CCC(Cc4nncn4C)CC3)s2)c1	-11	2.11
Cc1ccc2c(c1)CCCN2C(=O)c1cnn2c1OCCC2	-12	2.13
Cc1[nH][nH]c(=O)c1CC(=O)NCc1cccnc1Oc1ccc(F)c(F)c1	-9	1.01
Cc1nc[nH]c1C(=O)NCC1CCN(c2ncnc(C)c2C)CC1	-1	0.08
O=S(=O)(c1cncc(F)c1)N1CCC[C@H](Cn2cncn2)C1	-9	1.11
COc1ccsc1S(=O)(=O)N(C)Cc1scnc1C	-2	0.21
Cc1cc(C(=O)N2Cc3cnn(CCO)c3C2)cc2sc(N)nc12	-4	0.67
Cc1cccc(C2CC(NCC3(C(N)=O)CCOCC3)C2)c1 (stereo not given)	-5	0.59
Cc1ccc2oc(-c3nccn3CCN(C)S(C)(=O)=O)c(C)c2c1	-3	0.42
CCN(CCC1CCN(C(=O)Nc2ccc3c(c2)OCO3)CC1)CC1CC1	-12	2.25
Cc1c(NS(=O)(=O)c2coc3ccccc23)noc1C(C)(C)C	-15	3.02
CCOC(=O)[C@@H]1CCCCN1Cc1cn(CCc2ccnn2C)nn1	-3	0.46
